# This is one part of the list.
# B1: PNA (Arachis hypogaea), P02872 (protein)
# chain: MKPFCVFLTFFLLLAASSKKVDSAETVSFNFNSFSEGNPAINFQGDVTVLSNGNIQLTNLNKVNSVGRVLYAMPVRIWSSATGNVASFLTSFSFEMKDIKDYDPADGIIFFIAPEDTQIPAGSIGGGTLGVSDTKGAGHFVGVEFDTYSNSEYNDPPTDHVGIDVNSVDSVKTVPWNSVSGAVVKVTVIYDSSTKTLSVAVTNDNGDITTIAQVVDLKAKLPERVKFGFSASGSLGGRQIHLIRSWSFTSTLITTTRRSIDNNEKKIMNMASA
# Columns and labels:
# Assay in all cases: glycan array binding signal (z-score within array); higher = stronger binding
# Conditions in all cases: glycan notation: IUPAC condensed, linker removed
# [1] = target: Fuc(a1-2)Gal(b1-3)[Fuc(a1-4)]GlcNAc(b1-3)Gal(b1-4)Glc
# Method in brief: (§1)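 The binding signal is a Z-score computed within each array. Data were drawn from 3228 arrays in the Consortium for Functional Glycomics database, restricted to those with a known protein sequence. Scores were averaged over arrays of the same protein sequence at different concentrations or buffers, and over linkers, and negative values can be taken as non-binding.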
# [2] = target: Fuc(a1-2)Gal(b1-3)[Fuc(a1-4)]GlcNAc(b1-3)Gal(b1-4)[Fuc(a1-3)]GlcNAc(b1-3)Gal(b1-4)Glc
# Method in brief: as §1
# [3] = target: Fuc(a1-2)Gal(b1-3)[Fuc(a1-4)]GlcNAc(b1-3)[Fuc(a1-2)]Gal(b1-4)Glc
# Method in brief: as §1
# [4] = target: Fuc(a1-2)Gal(b1-3)[Fuc(a1-4)]GlcNAc(b1-3)[Fuc(a1-3)[Gal(b1-4)]GlcNAc(b1-6)]Gal(b1-4)Glc
# Method in brief: as §1
# [5] = target: Fuc(a1-2)Gal(b1-3)[Fuc(a1-4)]GlcNAc(b1-3)[Gal(b1-4)GlcNAc(b1-6)]Gal(b1-4)Glc
# Method in brief: as §1
# [6] = target: Fuc(a1-2)Gal(b1-4)Fuc(a1-3)]GlcNAc(b1-2)Man(a1-3)[Fuc(a1-2)Gal(b1-4)[Fuc(a1-3)]GlcNAc(b1-2)Man(a1-6)]Man(b1-4)GlcNAc(b1-4)GlcNAc
# Method in brief: as §1
# Fuc(a1-2)Gal(b1-4)Glc = target: Fuc(a1-2)Gal(b1-4)Glc
# Method in brief: as §1
# Fuc(a1-2)Gal(b1-4)Glc6S = target: Fuc(a1-2)Gal(b1-4)Glc6S
# Method in brief: as §1
# Fuc(a1-2)Gal(b1-4)GlcNAc = target: Fuc(a1-2)Gal(b1-4)GlcNAc
# Method in brief: as §1
# [7] = target: Fuc(a1-2)Gal(b1-4)GlcNAc(b1-2)Man
# Method in brief: as §1
# [8] = target: Fuc(a1-2)Gal(b1-4)GlcNAc(b1-2)Man(a1-3)[Fuc(a1-2)Gal(b1-4)GlcNAc(b1-2)Man(a1-6)]Man(b1-4)GlcNAc(b1-4)GlcNAc
# Method in brief: as §1
# [9] = target: Fuc(a1-2)Gal(b1-4)GlcNAc(b1-2)Man(a1-3)[Fuc(a1-2)Gal(b1-4)GlcNAc(b1-2)Man(a1-6)]Man(b1-4)GlcNAc(b1-4)[Fuc(a1-6)]GlcNAc
# Method in brief: as §1
# [10] = target: Fuc(a1-2)Gal(b1-4)GlcNAc(b1-2)[Fuc(a1-2)Gal(b1-4)GlcNAc(b1-4)]Man(a1-3)[Fuc(a1-2)Gal(b1-4)GlcNAc(b1-2)Man(a1-6)]Man(b1-4)GlcNAc(b1-4)GlcNAc
# Method in brief: as §1
# [11] = target: Fuc(a1-2)Gal(b1-4)GlcNAc(b1-3)Gal(b1-4)GlcNAc
# Method in brief: as §1
# [12] = target: Fuc(a1-2)Gal(b1-4)GlcNAc(b1-3)Gal(b1-4)GlcNAc(b1-2)Man(a1-3)[Fuc(a1-2)Gal(b1-4)GlcNAc(b1-3)Gal(b1-4)GlcNAc(b1-2)Man(a1-6)]Man(b1-4)GlcNAc(b1-4)GlcNAc
# Method in brief: as §1
# [13] = target: Fuc(a1-2)Gal(b1-4)GlcNAc(b1-3)Gal(b1-4)GlcNAc(b1-3)Gal(b1-4)GlcNAc
# Method in brief: as §1
# [14] = target: Fuc(a1-2)Gal(b1-4)GlcNAc(b1-3)GalNAc
# Method in brief: as §1
# [15] = target: Fuc(a1-2)Gal(b1-4)GlcNAc(b1-3)[Fuc(a1-2)Gal(b1-4)GlcNAc(b1-6)]GalNAc
# Method in brief: as §1
# [16] = target: Fuc(a1-2)Gal(b1-4)GlcNAc(b1-3)[Fuc(a1-3)[Gal(b1-4)]GlcNAc(b1-6)]Gal(b1-4)Glc
# Method in brief: as §1
# [17] = target: Fuc(a1-2)Gal(b1-4)GlcNAc(b1-6)GalNAc
# Method in brief: as §1
# [18] = target: Fuc(a1-2)Gal(b1-4)GlcNAc6S
# Method in brief: as §1
# [19] = target: Fuc(a1-2)Gal(b1-4)[Fuc(a1-3)]GlcNAc
# Method in brief: as §1
# [20] = target: Fuc(a1-2)Gal(b1-4)[Fuc(a1-3)]GlcNAc(b1-2)Man(a1-3)[Fuc(a1-2)Gal(b1-4)[Fuc(a1-3)]GlcNAc(b1-2)Man(a1-6)]Man(b1-4)GlcNAc(b1-4)GlcNAc
# Method in brief: as §1
# [21] = target: Fuc(a1-2)Gal(b1-4)[Fuc(a1-3)]GlcNAc(b1-2)Man(a1-3)[Fuc(a1-2)Gal(b1-4)[Fuc(a1-3)]GlcNAc(b1-2)Man(a1-6)]Man(b1-4)GlcNAc(b1-4)[Fuc(a1-6)]GlcNAc
# Method in brief: as §1
# [22] = target: Fuc(a1-2)Gal(b1-4)[Fuc(a1-3)]GlcNAc(b1-2)[Fuc(a1-2)Gal(b1-4)[Fuc(a1-3)]GlcNAc(b1-4)]Man(a1-3)[Fuc(a1-2)Gal(b1-4)[Fuc(a1-3)]GlcNAc(b1-2)Man(a1-6)]Man(b1-4)GlcNAc(b1-4)GlcNAc
# Method in brief: as §1
# [23] = target: Fuc(a1-2)Gal(b1-4)[Fuc(a1-3)]GlcNAc(b1-3)Gal(b1-4)Glc
# Method in brief: as §1
# [24] = target: Fuc(a1-2)Gal(b1-4)[Fuc(a1-3)]GlcNAc(b1-3)Gal(b1-4)[Fuc(a1-3)]GlcNAc
# Method in brief: as §1
# [25] = target: Fuc(a1-2)Gal(b1-4)[Fuc(a1-3)]GlcNAc(b1-3)Gal(b1-4)[Fuc(a1-3)]GlcNAc(b1-3)Gal(b1-4)[Fuc(a1-3)]GlcNAc
# Method in brief: as §1
# [26] = target: Fuc(a1-2)Gal(b1-4)[Fuc(a1-3)]GlcNAc(b1-3)GalNAc
# Method in brief: as §1
# [27] = target: Fuc(a1-2)Gal(b1-4)[Fuc(a1-3)]GlcNAc(b1-3)[Fuc(a1-2)]Gal(b1-4)Glc
# Method in brief: as §1
binder,measurement,setting,value
B1,glycan array binding signal (z-score),[1],-0.195
same,glycan array binding signal (z-score),[2],-0.195
same,glycan array binding signal (z-score),[3],-0.195
same,glycan array binding signal (z-score),[4],-0.187
same,glycan array binding signal (z-score),[5],-0.127
same,glycan array binding signal (z-score),[6],0.041
same,glycan array binding signal (z-score),Fuc(a1-2)Gal(b1-4)Glc,-0.105
same,glycan array binding signal (z-score),Fuc(a1-2)Gal(b1-4)Glc6S,-0.112
same,glycan array binding signal (z-score),Fuc(a1-2)Gal(b1-4)GlcNAc,-0.165
same,glycan array binding signal (z-score),[7],-0.224
same,glycan array binding signal (z-score),[8],-0.116
same,glycan array binding signal (z-score),[9],-0.236
same,glycan array binding signal (z-score),[10],-0.199
same,glycan array binding signal (z-score),[11],-0.144
same,glycan array binding signal (z-score),[12],-0.114
same,glycan array binding signal (z-score),[13],-0.113
same,glycan array binding signal (z-score),[14],-0.192
same,glycan array binding signal (z-score),[15],-0.24
same,glycan array binding signal (z-score),[16],-0.142
same,glycan array binding signal (z-score),[17],-0.167
same,glycan array binding signal (z-score),[18],-0.144
same,glycan array binding signal (z-score),[19],-0.164
same,glycan array binding signal (z-score),[20],-0.007
same,glycan array binding signal (z-score),[21],-0.135
same,glycan array binding signal (z-score),[22],-0.107
same,glycan array binding signal (z-score),[23],-0.195
same,glycan array binding signal (z-score),[24],-0.198
same,glycan array binding signal (z-score),[25],-0.16
same,glycan array binding signal (z-score),[26],-0.037
same,glycan array binding signal (z-score),[27],-0.195
